The whole screen tested about 300,000 compounds, of which about 1,200 (0.4%) were called active. Inconclusive means that the source gave no clear call. Such entries were picked first, then a sample of the others. Calls come from the whole dose curve; as a rule, active = well fitted inhibition curve with a large enough effect; inconclusive = small, poorly fitted or top-dose-only effect, or another doubt; inactive = no such curve, though single readings can be large or run the other way. A potency beside an inconclusive call is a rough fit, not a confirmed value.
Target: Lysosomal alpha-glucosidase (Homo sapiens) (UniProt P10253)
Assay: qHTS Assay for Inhibitors and Activators of Human alpha-Glucosidase Cleavage of Glycogen;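 for activity change, negative = inhibition: 0% = full enzyme reaction and -100% = no-enzyme basal signal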
Conditions: recombinant GAA, glycogen substrate, Amplex Red glucose oxidase fluorescence; activity change, negative = inhibition: at 76.4 µM (top of the series) unless noted
How it was run: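 qHTS, 1536-well; enzyme 4 nM final; cpd up to 77 uM; substrate bovine liver glycogen 30 ug; 50 mM citrate/phosphate pH 5.0, 0.01% Tween-20; 37 C, 40 min; Amplex Red detection 45 min RT; Hill fit → AC50.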
Potency is the fitted concentration of half-maximal effect.

Row | Compound | Potency | activity change, negative = inhibition
1 | CC(C)(C)c1cc(CCC(=O)N2CCNCC2)c(C(C)(C)C)cc1O | inconclusive: 8.91 µM [inhibitor, single point] | 
2 | CC(C)Oc1ccc(CNC(=O)CCCn2c(=O)c3cccn3c3ccccc32)cc1 | inactive | 
3 | S=C(NCc1ccco1)Nc1ccc(Oc2ccccc2)cc1 | inconclusive: 8.91 µM [inhibitor, full curve] | 
4 | COc1cc2[nH]c3c(Cl)ncnc3c2cc1OC | inactive | 
5 | CCC(=O)N1c2ccc(S(=O)(=O)N3CCN(c4ccccc4)CC3)cc2CC1C (centres undefined) | inconclusive: 5.01 µM [inhibitor, full curve, poor fit] | 
6 | CCCC(=O)Nc1ccc(C(=O)N/N=C2\CC(=O)CC(C)(C)C2)cc1 | inconclusive: 17.6 µM [inhibitor, partial curve] | 
7 | CCSc1sccc1C1C(C#N)=C(N)N(c2cccnc2)C2=C1C(=O)CC(C)(C)C2 (centres undefined) | inconclusive: 39.8 µM [inhibitor, partial curve] | 
8 | CCOc1ccccc1N1C(=O)CC(Nc2ccc(N3CCOCC3)cc2)C1=O (centres undefined) | inconclusive: 9.92 µM [inhibitor, partial curve] | 
9 | CN(C)/C=N/c1[nH]ncc1C#N | inconclusive: 4.47 µM [inhibitor, full curve, poor fit] | 
10 | CCOc1ccc(-n2c(CCC(=O)O)ccc2-c2ccc(Br)cc2)cc1 | inactive | 
11 | CCN(CC)S(=O)(=O)c1nnc(NC(=O)COc2ccccc2Cl)s1 | inactive | 
12 | Cn1c(=O)c2c(nc(N/N=C/c3ccco3)n2C)n(C)c1=O | active: 8.91 µM | 
13 | Cc1ccc(Nc2nc(-c3c(C)nc4ncccn34)cs2)cc1 | inconclusive: 15.7 µM [inhibitor, partial curve] | 
14 | COc1ccccc1NC(=S)NCCc1ccccc1 | inconclusive: 44.7 µM [inhibitor, single point] | 
15 | COc1ccc(N(CC(=O)NCCc2ccc(OC)c(OC)c2)S(=O)(=O)c2ccc(OC)c(OC)c2)cc1 | inactive | 
16 | CCN(CC)c1ccc([N+](=O)[O-])cc1C(=O)O | inactive | 
17 | COC(=O)c1ccc(-c2noc(CN(C)CCC3CCCCO3)n2)cc1 (centres undefined) | inactive | 
18 | CCOc1ccccc1N(CC)C(=O)c1nn(C)c2c1CSc1ccccc1-2 | inactive | 
19 | COc1cc(N2C(=O)CSC2=S)cc(OC)c1OC | inconclusive: 12.6 µM [inhibitor, full curve, poor fit] | 
20 | COC(=O)C1=C(C)N(Cc2ccc(C)cc2)C(=O)/C1=C\c1ccc(O)c(OC)c1 | active: 28 µM | 
21 | Nn1cnnc1N/N=C/c1ccc(Cl)c([N+](=O)[O-])c1 | inconclusive: 35.2 µM [inhibitor, partial curve] | 
22 | N#CC(c1ccc(Cl)cc1)(c1ncc(C(F)(F)F)cc1Cl)N1CCOCC1 (centres undefined) | inconclusive: 7.94 µM [inhibitor, full curve] | 
23 | CS(=O)(=O)NNC(=O)c1cc2cc3ccccc3nc2s1 | active: 15.7 µM | 

Row | Compound | Potency | activity change, negative = inhibition
24 | COCC(=O)NNC(=S)Nc1cccc(C)c1C | inconclusive: 3.55 µM [inhibitor, single point] | 
25 | C/C(=N\N1CCN(c2ccccc2)CC1)c1ccncc1 | inconclusive: 5.01 µM [inhibitor, full curve] | 
26 | COc1ccc(C(=O)NC(=S)N2CCCc3ccccc32)cc1OC | inconclusive: 56.2 µM [inhibitor, partial curve] | 
27 | Cc1cc(C)c2c(-n3cccc3)c(C(=O)NNS(=O)(=O)c3ccc(F)cc3)sc2n1 | active: 31.6 µM | 
28 | COC(=O)C1=CN(C)C=C(C(=O)OC)C1c1ccc(O)c(OC)c1 | inconclusive: 12.6 µM [inhibitor, partial curve] | 
29 | Cc1occc1C(=O)NNC(=S)Nc1ccccc1C(F)(F)F | inconclusive: 22.4 µM [inhibitor, partial curve] | 
30 | N#CC1=C(N)OC2=C(CC/C2=C\c2ccccc2)C1c1ccccc1 (centres undefined) | inconclusive: 28 µM [activator, partial curve] | 
31 | CC(=O)Nc1ccc(-c2csc(NCc3ccccc3)n2)cc1 | inconclusive: 28.2 µM [inhibitor, partial curve] | 
32 | CCc1ccc(C(=O)/C=C2\Sc3ccccc3NC2=O)cc1 | inconclusive: 28.2 µM [inhibitor, partial curve] | 
33 | COC(=O)c1cc(NCc2ccccc2F)ccc1N1CCOCC1 | inconclusive: 31.6 µM [inhibitor, single point] | 
34 | S=C(NCc1ccco1)N/N=C/c1ccc(Cl)cc1 | inactive | 
35 | Cc1nc2c3ccccc3nc(NNC(=O)CCC(=O)N3CCN(c4ccccc4F)CC3)n2n1 | inconclusive: 28.2 µM [inhibitor, partial curve] | 
36 | CCOc1cc(/C=C2\C(=O)N(CCc3ccc(OC)c(OC)c3)C(C)=C2C(=O)OC)ccc1O | inconclusive: 28 µM [inhibitor, partial curve] | 
37 | O=c1cc(-c2ccc(O)cc2)oc2cc(O)c(C3OC(CO)C(O)C(O)C3O)c(O)c12 (centres undefined) | inconclusive: 35.5 µM [inhibitor, partial curve] | 
38 | CC[n+]1ccc(C[n+]2ccccc2)c2ccccc21 | inconclusive: 44.7 µM [inhibitor, single point] | 
39 | COc1ccc(-c2csc(N3N=C(C)C(C)C3=O)n2)cc1 (centres undefined) | inconclusive: 39.5 µM [inhibitor, single point] | 
40 | COc1ccc(/C=C/C(=O)Nc2nc3n(n2)C(c2ccccc2)C=C(c2ccccc2)N3)cc1 (centres undefined) | inconclusive: 28.2 µM [activator, single point] | 
41 | Cc1ccc(-c2cnc(NCc3ccc(C(F)(F)F)cc3)n2C)cc1 | inconclusive: 22.4 µM [inhibitor, partial curve] | 
42 | C(=N\Nc1nc(-c2ccccc2)cs1)/c1cccs1 | inconclusive: 25.1 µM [inhibitor, single point] | 
43 | CN1C(=O)OC(C)(CCc2ccccc2)C1(C)O (centres undefined) | inconclusive: 28.2 µM [inhibitor, single point] | 
44 | COc1cccc(/C=N/N2CCN(c3ccncc3S(=O)(=O)N3CCCCC3)CC2)c1 | inconclusive: 3.52 µM [inhibitor, single point] | 
45 | Cc1ccc2[nH]c3c(c2c1)CN(C(=O)CN1CCN(c2ccccc2)CC1)CC3 | inconclusive: 35.2 µM [inhibitor, partial curve] | 
46 | CCNC(=O)N1c2ccc(OCC)cc2C(C)=CC1(C)C | inconclusive: 31.6 µM [inhibitor, single point] | 

Row | Compound | Potency | activity change, negative = inhibition
47 | C=CCc1ccccc1OCC(O)CN1CCN(c2ccccc2)CC1 (centres undefined) | inconclusive: 50.1 µM [inhibitor, single point] | 
48 | Cc1ccc(/C=N/N2CCN(c3ccccn3)CC2)cc1 | inconclusive: 15.8 µM [inhibitor, partial curve] | 
49 | COc1ccc(Cl)cc1NC(=O)CSC1=Nc2ccccc2C2=NC(CC(=O)NCc3ccc4c(c3)OCO4)C(=O)N12 (centres undefined) | inconclusive: 12.6 µM [inhibitor, partial curve] | 
50 | Fc1ccccc1-n1cc(-c2ccccc2)[nH]c1=S | inconclusive: 20 µM [inhibitor, single point] | 
51 | Nc1c(-c2ccsc2)cnc2ncnn12 | inconclusive: 7.94 µM [inhibitor, single point] | 
52 | CCCn1c(/C=C/c2ccco2)nc2ccccc21 | inconclusive: 35.5 µM [activator, partial curve] | 
53 | O=C1NN(c2ccccc2)C(=O)/C1=C\c1ccccc1OCC(=O)N1CCOCC1 | inconclusive: 25.1 µM [inhibitor, partial curve] | 
54 | O=C(NNc1nc(-c2ccccc2)cs1)c1ccc(F)cc1 | inconclusive: 39.8 µM [inhibitor, partial curve] | 
55 | O=C1CC(Nc2ccc3ccccc3c2)C(=O)N1Cc1ccccc1 (centres undefined) | inactive | 
56 | Nc1ccc2c(c1)OCCOCCOCCOCCOCCO2 | inconclusive: 28.2 µM [inhibitor, partial curve] | 
57 | C/C(=N\N1CCN(c2ccccc2)CC1)c1ccc(O)cc1 | inconclusive: 50.1 µM [inhibitor, single point] | 
58 | CC(=O)c1ccc(NC(=O)CC2Nc3cccc4cccc(c34)NC2=O)cc1 (centres undefined) | inconclusive: 15.8 µM [inhibitor, partial curve] | inconclusive: 22.4% [activator]
59 | CC1=CC2(O)OCCN(CCO)C2=CC1=O (centres undefined) | inconclusive: 39.5 µM [activator, single point] | 
60 | c1ccc(N2CCN(c3cnc4ccccc4n3)CC2)cc1 | inconclusive: 3.98 µM [inhibitor, full curve] | 
61 | Cc1cccc(/C=C(\C#N)C(=O)Nc2ccccn2)c1 | inconclusive: 50.1 µM [inhibitor, single point] | 
62 | COc1ccc(C(C#N)c2nc3ccccc3nc2Cl)cc1 (centres undefined) | inconclusive: 50.1 µM [inhibitor, single point] | 
63 | COc1ccc(N=Cc2ccc(-c3ccccc3)o2)cc1 | inconclusive: 39.5 µM [inhibitor, single point] | 
64 | Cc1ccc(N(CC(=O)N2CCN(C3CCCCC3)CC2)S(=O)(=O)c2cccnc2)cc1 |  | inconclusive: 52.6% [activator]
65 | CCOc1cc(C2/C(=C(/O)c3ccc(S(=O)(=O)N4CCCCC4)cc3)C(=O)C(=O)N2CCOC)ccc1O (centres undefined) | inconclusive: 28.2 µM [inhibitor, single point] | 
66 | Cc1sc2c(c1C)C(=O)NC(c1cccc(O)c1)N2 (centres undefined) | inconclusive: 31.4 µM [inhibitor, single point] | 
67 | COc1cc(-c2nc3ncccn3c2Nc2ccc(C)cc2C)ccc1O | active: 10 µM | 
68 | Cc1ccc(CCNC(=O)c2cn(C)c3ccc(S(=O)(=O)N4CCCCC4)cc3c2=O)cc1 | inconclusive: 25.1 µM [inhibitor, partial curve] | 
